Test results: the supplement of paper PMC3334620
The full ranking holds about 33,000 sequences; the median of “E-score (-0.5 to 0.5)” is about -0.054, and the highest 2% start at about 0.39. This is one part of the list.

What follows are sequences tested against Ylr278c (UniProt Q05854) (assay: PBM E-score (8-mer binding enrichment) (E-score (-0.5 to 0.5)); higher = stronger / more preferred TF binding; most listed sequences are background and not binding sites). Details: protein concentration: 200 nM; construct: GST-DNA-binding domain.
Method: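 Universal 'all 10-mer' protein binding microarrays (Agilent AMADID 015681) probed with GST-tagged S. cerevisiae TFs (full-length or DBD) made by in vitro transcription/translation (PURExpress), about 100-200 nM. Bound TF was detected with fluorescent anti-GST. Each ungapped 8-mer (which stands for itself and its reverse complement) is scored by the PBM enrichment score (E-score), a modified Wilcoxon-Mann-Whitney statistic from -0.5 to +0.5, computed with the Universal PBM Analysis Suite. Scale: above 0.35 generally sequence-specific binding.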

Row | Sequence | PBM E-score
1 | CGGACACC | 0.291
2 | AGCGGAGC | 0.381
3 | GTCCGACA | 0.393
4 | GGGCGTTA | -0.101
5 | TAGTCTGA | -0.354
6 | ATGATTTA | -0.121
7 | ACACCGAC | 0.26
8 | GGCAAATA | 0.194
9 | CATCGGGA | 0.252
10 | CAGGAGGG | -0.289
11 | GTCCCATA | -0.278
12 | CCGCCGCA | 0.266
13 | CTCTCATC | -0.17
14 | CCCGGATA | 0.351
15 | CGTCCACA | -0.0859
16 | CGGATCAA | 0.315
17 | CATAATTA | -0.156
18 | CTCCGAGC | 0.439
19 | AAGATGTA | -0.224
20 | ACGGGTTC | -0.0562
21 | ACCCTAAT | -0.3
22 | GGCTCTAC | 0.0543
23 | TAAGACAA | -0.0566
24 | GCAACCAA | -0.0483
25 | CTTCCCAC | -0.0691

Row | Sequence | PBM E-score
26 | GGAACACC | 0.116
27 | AGAACTAA | 0.0423
28 | ATCGACGG | 0.167
29 | GACCCTCC | 0.127
30 | TCAACGCA | -0.183
31 | GACGGTGA | 0.0974
32 | CGTAGAGC | -0.0798
33 | CCATTCGA | -0.144
34 | CGTTGCCA | -0.0625
35 | GGGCTGAA | -0.0804
36 | ATCGATTC | -0.0981
37 | AGAGATAA | -0.0878
38 | CACACACG | 0.119
39 | ATCGGCTG | 0.131
40 | CGTGGACC | 0.0705
41 | AGTTTTTC | 0.239
42 | AACGCAGA | -0.0288
43 | GTGTCCCA | -0.0522
44 | GGAGGCAA | 0.187
45 | CAGCGAAC | -0.0775
46 | AGGTCGAG | -0.255
47 | GCGCAATA | 0.0889
48 | ATCAGGGG | -0.235
49 | GGCACATA | -0.052
50 | AGAAGGGC | -0.138

Row | Sequence | PBM E-score
51 | CGGGCACG | 0.235
52 | AACCTTCT | -0.0926
53 | GTAATATA | -0.0178
54 | ACGTCGCA | -0.233
55 | ACTGGGCA | -0.177
56 | GTATGCTA | -0.00323
57 | CCGCTAGG | 0.174
58 | CACCACAA | -0.0336
59 | GTAAGAAC | -0.0575
60 | CTCGTAAC | -0.0333
61 | AATTTCAA | -0.104
62 | ACAAACCT | -0.208
63 | CCATCAGG | -0.0717
64 | ATATAAGG | 0.151
65 | TATCACGA | -0.115
66 | GATTTTGC | -0.0482
67 | GCGACACC | 0.019
68 | ACCCCTTC | -0.0977
69 | CATCGCCG | 0.291
70 | CCACCGGC | 0.295
71 | CGTCTTTA | 0.112
72 | CCCTTGCC | -0.208
73 | ATTCTTAA | -0.154
74 | CCGGGAAC | 0.344
75 | CAGCACTC | -0.0477

Row | Sequence | PBM E-score
76 | ATCGGGTC | 0.184
77 | CGTTAGAG | -0.0267
78 | ATGTGGTA | -0.0913
79 | GCGAGAGA | -0.162
80 | ACTGATCT | -0.0821
81 | GAGGACAC | 0.0783
82 | ACCTCCAC | 0.0767
83 | GCTATCCA | 0.0641
84 | GCGGCAAC | 0.0917
85 | ACATGCGA | -0.185
86 | TCGTCAGA | -0.176
87 | AGGATAGG | -0.172
88 | GAGTTATA | -0.056
89 | GGCGAGGA | -0.0257
90 | CCCTTTTA | -0.296
91 | GCCATACC | -0.124
92 | CGGACTAG | 0.325
93 | GACGTGGA | -0.0981
94 | AAGTAGCC | -0.00524
95 | AGAGAGAC | -0.25
96 | GCGAATTA | 0.134
97 | ACAATTGG | -0.269
98 | GAGCTTGC | -0.134
99 | AACATTTC | -0.204
100 | CCGACTCC | 0.369

Row | Sequence | PBM E-score
101 | GGTAATCA | 0.0971
102 | TAAAAGGA | -0.0541
103 | CTTGCGTC | -0.148
104 | AAATCCAT | 0.0574
105 | AGCTACAG | -0.274
106 | ATGTGAAT | 0.00454
107 | AGTTTACA | -0.117
108 | AAAGAAGC | 0.0425
109 | CCTCCTTC | -0.142
110 | CCAAGCGC | 0.06
111 | ACAGCGCA | -0.0624
112 | ATCCGGCG | 0.432
113 | ATACGGAT | 0.256
114 | GGACTGCC | 0.00451
115 | ATTAGCAC | 0.0473
116 | CTACCCCC | 0.0779
117 | GAGCCGCA | 0.0873
118 | CCGACCGA | 0.347
119 | GGACTATA | 0.13
120 | CGAATTGC | 0.156
121 | AGGTACCG | 1e-05
122 | TCGCGGAA | 0.342
123 | GAATCTGC | 0.12
124 | AGAATCCG | 0.297
125 | AATCTTCT | 0.094

Row | Sequence | PBM E-score
126 | TCGGGAGA | 0.0741
127 | CTGTCTTA | -0.0895
128 | AGACACGG | 0.086
129 | ATGCCCCA | -0.0328
130 | CGACTAGC | 0.0696
131 | CAAGGAGG | -0.132
132 | AGCCGAGA | 0.0504
133 | GGCACCCC | -0.0269
134 | CTGTGACA | -0.217
135 | ATAGACGC | 0.13
136 | ATCAGGAA | -0.0943
137 | CCGCTGCA | 0.0719
138 | CTGCGAAG | -0.289
139 | AACAGAGC | -0.159
140 | AACATCTG | -0.262
141 | CAACAACC | -0.0761
142 | CTAAGTTA | -0.242
143 | AAGATCAT | -0.179
144 | CCTCTGAC | -0.0653
145 | CGAGCCAC | -0.115
146 | TCCTCAGA | 0.0167
147 | CGCGCAAG | 0.0504
148 | ACATTTTG | -0.159
149 | CCGAATAA | 0.231
150 | CCACAAAG | -0.0704

Row | Sequence | PBM E-score
151 | ACCCACAT | 0.063
152 | GTACGCTA | -0.111
153 | ACAGAAGA | -0.00191
154 | ACGGTGTG | -0.11
155 | AGGGGATG | -0.112
156 | AAGTAGGC | 0.0727
157 | AGATGCCG | 0.259
158 | ACGATGGA | -0.0215
159 | CGGAACCA | 0.324
160 | CGGCCCAA | 0.163
161 | ATTGATGA | -0.041
162 | GACTAGCC | -0.119
163 | ACCGCGAG | 0.00983
164 | TTAGTAAA | 0.0137
165 | CCCATGCA | -0.195
166 | TCTATAAA | -0.159
167 | CATCTTAC | -0.242
168 | ACAACTAT | -0.0664
169 | AGCATAGG | -0.11
170 | CGGATATC | 0.366
171 | ATAGTCGA | -0.0984
172 | ACACTAGA | -0.061
